How the values were obtained:
[1] = target: biotin-labeled human IGF1 (human, biotin-labeled); assay: capture ELISA, DVD-Ig captured by anti-human Fc, biotin-labeled IGF1; N-terminal VD
[2] = target: biotin-labeled human IGF2 (human, biotin-labeled); assay: capture ELISA, DVD-Ig captured by anti-human Fc, biotin-labeled IGF2; N-terminal VD
[3] = target: T1, IGF1R (antigen of the capture ELISA table); assay: antigen capture ELISA, IGF1R; N-terminal VD
T1 construct: No IGF1R capture ELISA method is described; also called IGFR

IGF1R ECD = target: T2, IGF1R ECD; assay: Biacore SPR
T2 construct: extracellular domain; Bought reagent

IGF-I = target: T3, IGF-I; assay: Biacore SPR
T3 construct: Bought reagent; also called IGF1

IGF-2 = target: T4, IGF-2; assay: Biacore SPR
T4 construct: Bought reagent

VEGF = target: T5, VEGF; assay: Biacore SPR
T5 construct: Bought reagent
T5 sequence (looked up): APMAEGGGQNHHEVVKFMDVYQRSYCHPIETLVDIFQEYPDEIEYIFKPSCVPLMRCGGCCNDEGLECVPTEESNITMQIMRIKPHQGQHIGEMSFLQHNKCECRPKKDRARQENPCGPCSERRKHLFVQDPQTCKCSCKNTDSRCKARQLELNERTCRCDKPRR

[4] = target: T6, ErbB3 (ErbB3 ECD/FC Chimera-His tag, R&D 348-RB-050); assay: direct bind ELISA, coated antigen; N-terminal VD of DVD-Ig
T6 construct: extracellular domain; Bought antigen coated on the ELISA plate

PlGF = target: T7, PlGF; assay: direct bind ELISA, N-terminal VD
T7 construct: bought antigen coated on the ELISA plate; also called Placental GF
T7 sequence (looked up): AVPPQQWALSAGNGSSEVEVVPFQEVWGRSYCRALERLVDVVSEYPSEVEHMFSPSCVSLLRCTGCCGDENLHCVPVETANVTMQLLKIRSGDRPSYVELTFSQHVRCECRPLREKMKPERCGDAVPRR

B1: DVD030 (bispecific antibody, human IgG1, kappa)
heavy: QVQLVQSGAEVKKPGASVKVSCKASGYTFTSYDINWVRQATGQGLEWMGWMNPNSGNTGYAQKFQGRVTMTRNTSISTAYMELSSLRSEDTAVYYCARDPYYYYYGMDVWGQGTTVTVSSASTKGP[omitted - about 450 residues with a human IgG1 Fc]
light: QSVLTQPPSVSAAPGQKVTISCSGSSSNIENNHVSWYQQLPGTAPKLLIYDNNKRPSGIPDRFSGSKSGTSATLGITGLQTGDEADYYCETWDTSLSAGRVFGGGTKLTVLGQPKAA[omitted - about 200 residues]
notes: also called IGF1,2 / HER-2 DVD-Ig; DVD030H
EC50 [1]: 1.8 nM
EC50 [2]: 5.5 nM

B2: DVD032 (bispecific antibody, human IgG1, kappa)
heavy: EVQLLESGGGLVQPGGSLRLSCTASGFTFSSYAMNWVRQAPGKGLEWVSAISGSGGTTFYADSVKGRFTISRDNSRTTLYLQMNSLRAEDTAVYYCAKDLGWSDSYYYYYGMDVWGQGTTVTVSSASTKGP[omitted - about 450 residues with a human IgG1 Fc]
light: DIQMTQFPSSLSASVGDRVTITCRASQGIRNDLGWYQQKPGKAPKRLIYAASRLHRGVPSRFSGSGSGTEFTLTISSLQPEDFATYYCLQHNSYPCSFGQGTKLEIKRTVAA[omitted - about 200 residues]
notes: DVD-Ig; also called IGF1R / HER-2 DVD-Ig; DVD032H
EC50 [3]: 0.2 nM

B3: DVD032 (bispecific antibody, human IgG1, kappa)
heavy: EVQLLESGGGLVQPGGSLRLSCTASGFTFSSYAMNWVRQAPGKGLEWVSAISGSGGTTFYADSVKGRFTISRDNSRTTLYLQMNSLRAEDTAVYYCAKDLGWSDSYYYYYGMDVWGQGTTVTVSSASTKGP[omitted - about 450 residues with a human IgG1 Fc]
light: DIQMTQFPSSLSASVGDRVTITCRASQGIRNDLGWYQQKPGKAPKRLIYAASRLHRGVPSRFSGSGSGTEFTLTISSLQPEDFATYYCLQHNSYPCSFGQGTKLEIKRTVAA[omitted - about 200 residues]
notes: N-terminal VD IGF1R, C-terminal VD HER-2; also called DVD032H; DVD032L
Kd (IGF1R ECD): 0.829 nM
koff (IGF1R ECD): 4.23e-05 s⁻¹
kon (IGF1R ECD): 51000 M⁻¹ s⁻¹

B4: DVD030 (bispecific antibody, human IgG1, kappa)
heavy: QVQLVQSGAEVKKPGASVKVSCKASGYTFTSYDINWVRQATGQGLEWMGWMNPNSGNTGYAQKFQGRVTMTRNTSISTAYMELSSLRSEDTAVYYCARDPYYYYYGMDVWGQGTTVTVSSASTKGP[omitted - about 450 residues with a human IgG1 Fc]
light: QSVLTQPPSVSAAPGQKVTISCSGSSSNIENNHVSWYQQLPGTAPKLLIYDNNKRPSGIPDRFSGSKSGTSATLGITGLQTGDEADYYCETWDTSLSAGRVFGGGTKLTVLGQPKAA[omitted - about 200 residues]
notes: also called DVD030H; DVD030L
Kd (IGF-I): 0.292 nM
koff (IGF-I): 0.00116 s⁻¹
kon (IGF-I): 3.96e+06 M⁻¹ s⁻¹
Kd (IGF-2): 0.00234 nM
koff (IGF-2): 1.98e-05 s⁻¹
kon (IGF-2): 8.46e+06 M⁻¹ s⁻¹

B5: DVD037 (bispecific antibody, human IgG1, kappa)
heavy: EVQLVESGGGLVQPGGSLRLSCAASGYTFTNYGMNWVRQAPGKGLEWVGWINTYTGEPTYAADFKRRFTFSLDTSKSTAYLQMNSLRAEDTAVYYCAKYPHYYGSSHWYFDVWGQGTLVTVSSASTKGP[omitted - about 450 residues with a human IgG1 Fc]
light: DIQMTQSPSSLSASVGDRVTITCSASQDISNYLNWYQQKPGKAPKVLIYFTSSLHSGVPSRFSGSGSGTDFTLTISSLQPEDFATYYCQQYSTVPWTFGQGTKVEIKRTVAA[omitted - about 200 residues]
notes: N-terminal VD VEGF, C-terminal VD HER-2; also called DVD037H; DVD037L
Kd (VEGF): < 0.00225 nM
koff (VEGF): < 1e-06 s⁻¹
kon (VEGF): 445000 M⁻¹ s⁻¹

B6: DVD403 (bispecific antibody, human IgG1, kappa)
heavy: EVQLVESGGGLVQPGGSLRLSCAASGFTFSIYSMNWVRQAPGKGLEWVSYISSSSSTIYYADSVKGRFTISRDNAKNSLYLQMNSLRDEDTAVYYCARDRGDFDAFDIWGQGTMVTVSSASTKGPSVFPLAP[omitted - about 450 residues with a human IgG1 Fc]
light: DIQMTQSPSSLSASVGDRVTITCQASQDITNYLNWYQQKPGKAPKLLIYDASNLETGVPSRFSGSGSGTDFTFTISSLQPEDIATYNCQQCENFPITFGQGTRLEIKRTVAA[omitted - about 200 residues]
notes: DVD-Ig; HC linker long, LC linker short; also called DVD403H; DVD403L
EC50 [4]: 1.03 nM

B7: DVD407 (bispecific antibody, human IgG1, kappa)
heavy: EVQLVESGGGLVQPGGSLRLSCAASGFTFSIYSMNWVRQAPGKGLEWVSYISSSSSTIYYADSVKGRFTISRDNAKNSLYLQMNSLRDEDTAVYYCARDRGDFDAFDIWGQGTMVTVSSASTKGP[omitted - about 450 residues with a human IgG1 Fc]
light: DIQMTQSPSSLSASVGDRVTITCQASQDITNYLNWYQQKPGKAPKLLIYDASNLETGVPSRFSGSGSGTDFTFTISSLQPEDIATYNCQQCENFPITFGQGTRLEIKRTVAAPSVFIFP[omitted - about 200 residues]
notes: DVD-Ig; HC linker short, LC linker long; also called DVD407H; DVD407L
EC50 [4]: 2.98 nM

B8: DVD411 (bispecific antibody, human IgG1, kappa)
heavy: EVQLLESGGGLVQPGGSLRLSCAASGFTFSHYVMAWVRQAPGKGLEWVSSISSSGGWTLYADSVKGRFTISRDNSKNTLYLQMNSLRAEDTAVYYCTRGLKMATIFDYWGQGTLVTVSSASTKGP[omitted - about 450 residues with a human IgG1 Fc]
light: QSALTQPASVSGSPGQSITISCTGTSSDVGSYNVVSWYQQHPGKAPKLIIYEVSQRPSGVSNRFSGSKSGNTASLTISGLQTEDEADYYCCSYAGSSIFVIFGGGTKVTVLGQPKAA[omitted - about 200 residues]
notes: DVD-Ig; HC linker short, LC linker short; also called DVD411H; DVD411L
EC50 [4]: 4.92 nM

B9: DVD415 (bispecific antibody, human IgG1, kappa, lambda)
heavy: EVQLLESGGGLVQPGGSLRLSCAASGFTFSHYVMAWVRQAPGKGLEWVSSISSSGGWTLYADSVKGRFTISRDNSKNTLYLQMNSLRAEDTAVYYCTRGLKMATIFDYWGQGTLVTVSSASTKGPSVFPLAP[omitted - about 450 residues with a human IgG1 Fc]
light: QSALTQPASVSGSPGQSITISCTGTSSDVGSYNVVSWYQQHPGKAPKLIIYEVSQRPSGVSNRFSGSKSGNTASLTISGLQTEDEADYYCCSYAGSSIFVIFGGGTKVTVLGQPKAAPSVTLFP[omitted - about 200 residues]
notes: DVD-Ig; HC linker long, LC linker long; also called DVD415H; DVD415L
EC50 [4]: 13 nM

B10: DVD419 (bispecific antibody, human IgG1, kappa)
heavy: EVQLLESGGGLVQPGGSLRLSCAASGFTFSHYVMAWVRQAPGKGLEWVSSISSSGGWTLYADSVKGRFTISRDNSKNTLYLQMNSLRAEDTAVYYCTRGLKMATIFDYWGQGTLVTVSSASTKGPSVFPLAP[omitted - about 450 residues with a human IgG1 Fc]
light: QSALTQPASVSGSPGQSITISCTGTSSDVGSYNVVSWYQQHPGKAPKLIIYEVSQRPSGVSNRFSGSKSGNTASLTISGLQTEDEADYYCCSYAGSSIFVIFGGGTKVTVLGQPKAA[omitted - about 200 residues]
notes: DVD-Ig; HC linker long, LC linker short; also called DVD419H; DVD419L
EC50 [4]: 32.4 nM

B11: DVD423 (bispecific antibody, human IgG1, kappa, lambda)
heavy: EVQLLESGGGLVQPGGSLRLSCAASGFTFSHYVMAWVRQAPGKGLEWVSSISSSGGWTLYADSVKGRFTISRDNSKNTLYLQMNSLRAEDTAVYYCTRGLKMATIFDYWGQGTLVTVSSASTKGP[omitted - about 450 residues with a human IgG1 Fc]
light: QSALTQPASVSGSPGQSITISCTGTSSDVGSYNVVSWYQQHPGKAPKLIIYEVSQRPSGVSNRFSGSKSGNTASLTISGLQTEDEADYYCCSYAGSSIFVIFGGGTKVTVLGQPKAAPSVTLFP[omitted - about 200 residues]
notes: DVD-Ig; HC linker short, LC linker long; also called DVD423H; DVD423L
EC50 [4]: 4.69 nM

B12: DVD685 (bispecific antibody, human IgG1, kappa)
heavy: EVQLVESGGGLVQPGGSLRLSCAASGFTFSIYSMNWVRQAPGKGLEWVSYISSSSSTIYYADSVKGRFTISRDNAKNSLYLQMNSLRDEDTAVYYCARDRGDFDAFDIWGQGTMVTVSSASTKGP[omitted - about 450 residues with a human IgG1 Fc]
light: DIQMTQSPSSLSASVGDRVTITCQASQDITNYLNWYQQKPGKAPKLLIYDASNLETGVPSRFSGSGSGTDFTFTISSLQPEDIATYNCQQCENFPITFGQGTRLEIKRTVAA[omitted - about 200 residues]
notes: DVD-Ig; HC linker short, LC linker short; also called DVD685H; DVD685L
EC50 [4]: 0.48 nM

B13: DVD547 (bispecific antibody, human IgG1, kappa)
heavy: QVQLKQSGPGLVQPSQSLSITCTVSGFSLTTYGIHWVRQSPGKGLEWLGVMWSGGDTDYDAAFISRLSISKDNSKSQVFFKMNSLQANDTGIYYCARYRFYGMDYWGQGTSVTVSSASTKGP[omitted - about 450 residues with a human IgG1 Fc]
light: AIQMTQSSSSFSVSLGDRVTITCKASEDIYNRFAWYQQKPGNAPRLLISGAASLEAGVPSRFSGSGSGQDYTLSITSLQTEDVATYYCQQYWSTPWTFGGGTKLEIKRTVAA[omitted - about 200 residues]
notes: HC linker short, LC linker short; also called DVD-Ig DVD547
EC50 (PlGF): 0.14 nM

B14: DVD563 (bispecific antibody, human IgG1, kappa)
heavy: QVQLKQSGPGLVQPSQSLSITCTVSGFSLTTYGIHWVRQSPGKGLEWLGVMWSGGDTDYDAAFISRLSISKDNSKSQVFFKMNSLQANDTGIYYCARYRFYGMDYWGQGTSVTVSSASTKGPSVFPLAP[omitted - about 450 residues with a human IgG1 Fc]
light: AIQMTQSSSSFSVSLGDRVTITCKASEDIYNRFAWYQQKPGNAPRLLISGAASLEAGVPSRFSGSGSGQDYTLSITSLQTEDVATYYCQQYWSTPWTFGGGTKLEIKRTVAA[omitted - about 200 residues]
notes: HC linker long, LC linker short; also called DVD-Ig DVD563
EC50 (PlGF): 0.21 nM

B15: DVD571 (bispecific antibody, human IgG1, kappa)
heavy: QVQLKQSGPGLVQPSQSLSITCTVSGFSLTTYGIHWVRQSPGKGLEWLGVMWSGGDTDYDAAFISRLSISKDNSKSQVFFKMNSLQANDTGIYYCARYRFYGMDYWGQGTSVTVSSASTKGP[omitted - about 450 residues with a human IgG1 Fc]
light: AIQMTQSSSSFSVSLGDRVTITCKASEDIYNRFAWYQQKPGNAPRLLISGAASLEAGVPSRFSGSGSGQDYTLSITSLQTEDVATYYCQQYWSTPWTFGGGTKLEIKRTVAAPSVFIFP[omitted - about 200 residues]
notes: HC linker short, LC linker long; also called DVD-Ig DVD571
EC50 (PlGF): 33.1 nM
